From PubChem BioAssay AID485344 (National Center for Advancing Translational Sciences (NCATS), 2010)
The campaign covered roughly 340,000 compounds. About 6,900 (2%) were called active. Cut-off read from the data, not from the text of the source: active = inhibition above about 30%; inactive = below that, where a call was filed. Only a part is listed here, and it is no random draw. Entries without a call were filed so in the source.

target: D(2) dopamine receptor (Homo sapiens) (UniProt P14416); assay: HTS Assay for Allosteric Antagonists of the Human D2 Dopamine Receptor: Primary Screen for Antagonists; details: HEK293 TREx D2 cells, calcium flux, dopamine EC80; at 10 µM; stronger effect = higher value; note: 0% is about no effect
UniProt P14416, sequence (P14416 whole entry, looked up): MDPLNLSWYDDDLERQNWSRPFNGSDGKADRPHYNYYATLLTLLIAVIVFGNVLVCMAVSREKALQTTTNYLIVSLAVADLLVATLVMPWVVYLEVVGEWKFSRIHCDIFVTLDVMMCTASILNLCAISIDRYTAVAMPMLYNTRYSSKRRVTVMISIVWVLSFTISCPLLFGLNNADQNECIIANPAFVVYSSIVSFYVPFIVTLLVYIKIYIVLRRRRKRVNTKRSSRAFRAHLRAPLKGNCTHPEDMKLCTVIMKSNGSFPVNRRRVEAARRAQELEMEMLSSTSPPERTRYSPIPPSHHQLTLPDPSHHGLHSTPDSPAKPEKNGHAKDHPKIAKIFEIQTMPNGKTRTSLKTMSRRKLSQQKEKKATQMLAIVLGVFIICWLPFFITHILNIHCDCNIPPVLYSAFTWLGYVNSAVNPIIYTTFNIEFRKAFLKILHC
Outline: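 Overnight-induced (tetracycline, 30 C) HEK293 T-REx cells carrying force-coupled D2 receive a no-wash calcium dye, then compound, then EC80 dopamine at 180 s; signals are read kinetically throughout.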

| SMILES | inhibition |
| --- | --- |
| C=CCC(CC=C)(CNC(=O)C(=O)Nc1ccc(C)cc1)c1ccccc1 | -12.5% |
| COc1cccc(Cn2c(=O)n(-c3cccc(Cl)c3)c(=O)c3c4c(sc32)CN(C(C)=O)CC4)c1 | 2.65% |
| COc1ccccc1-c1nnc(C2CCN(C(=O)c3cccc(C)c3)CC2)o1 | 4.6% |
| O=C(NCc1ccccc1)C(=O)NCC(c1ccco1)S(=O)(=O)c1ccc(Cl)cc1 (configuration not stated) | 1.24% |
| CCn1c(=O)cc(OCC(=O)NCc2ccccc2OC)c2ccccc21 | -2.05% |
| Cc1ccccc1Nc1nn2c(=O)c3ccc(C(=O)NCc4ccccc4)cc3nc2s1 | 6.72% |
| CCc1nc2c(cnn2-c2ccc(C)cc2)c(=O)n1Cc1ccccc1 | -5.44% |
| CCOC(=O)N1CCc2c(sc3c2c(=O)n(Cc2ccccc2)c(=O)n3Cc2cccc(C)c2)C1 | 7.66% |
| Cc1ccc(-c2onc(C)c2C)cc1S(=O)(=O)NCc1ccc(N(C)C)cc1 | 7.78% |
| CCc1ccc(NC(=O)Cn2c(=O)n(CCCCC(=O)NCc3ccccc3Cl)c(=O)c3ccccc32)cc1 | -5.36% |
| Cc1ccc(NC(=O)c2oc3ccccc3c2NC(=O)Cc2ccccc2)cc1 | 6.61% |
| Cc1cc(C)c(C)c(OCCCCN(C)Cc2ccccc2)c1 | active: 30.6% |
| CCOc1ccc(S(=O)(=O)N2CCN(c3cccc(C(F)(F)F)c3)CC2)cc1OCC | 5.33% |
| COc1ccc2c(c1)CCc1sc(NC(=O)c3cccc(Br)c3)nc1-2 | 8.47% |
| Cc1cc(C)c(NC(=O)C2CCCN(S(=O)(=O)c3c(C)noc3/C=C/N(C)C)C2)c(C)c1 (configuration not stated) | active: 33.4% |
| COc1ccccc1NC(=O)CSC1=Nc2ccccc2C2=NC(Cc3ccccc3)C(=O)N12 (configuration not stated) | -14.6% |
| CCN(CC)CCNC(=O)C(=O)NCC(c1ccc2c(c1)OCO2)N1CCOCC1 (configuration not stated) | 2.58% |
| COCc1cc(C)nc2c1C(=O)NC(c1ccc(C)cc1)N2Cc1ccccc1 (configuration not stated) | -22.4% |
| O=C(CSc1cn(CC(=O)N2CCCCC2)c2ccccc12)NCc1ccccc1 | 9.08% |
| CCCN1C(=O)c2[nH]nc(-c3ccccc3)c2C1c1cccc(O)c1 (configuration not stated) | -9.62% |
| CCOc1ccc(-c2nnc(SCC(=O)NCc3ccccc3Cl)o2)cc1 | -15.5% |
| O=C(Cn1cc(SCc2c(F)cccc2Cl)c2ccccc21)N1CCCCC1 | 9.2% |
| Cn1c(=O)n(Cc2ccccc2)c(=O)c2c1nc1n2CCN1c1ccccc1 | 5.92% |
| CCN(CC)CCNC(=O)CN1N=C(c2ccc(OC)cc2)CCC1=O | 6.77% |
| Cc1cccn2cc(-c3cccc(NC(=O)C(C)C)c3)nc12 | 6.65% |

| SMILES | inhibition |
| --- | --- |
| Cc1cc(Cl)ccc1OCC(=O)N(Cc1sccc1C)C1CCS(=O)(=O)C1 (configuration not stated) | 4.04% |
| CCC(=O)Nc1ccc2nc(SCCOc3ccc(C)cc3OC)sc2c1 | 2.97% |
| CCn1c(=O)cc(OCC(=O)N2CCN(c3ccc(C)cc3)C(C)C2)c2ccccc21 (configuration not stated) | -10.2% |
| CC(=O)c1ccc(NC(=O)CSc2nc(-c3ccc(C)cc3)nc3c2c(=O)n(C)c(=O)n3C)cc1 | 0.653% |
| CCCOc1cccc(C(=O)N(Cc2sccc2C)C2CCS(=O)(=O)C2)c1 (configuration not stated) | -16.7% |
| COc1ccc(CNC(=O)c2cnc(N(C)C)nc2)cc1 | 3.71% |
| CC(C)OCCCNC(=O)CN1C(=O)c2cccnc2Sc2ccccc21 | 0.217% |
| CCCCOc1ccc(C(=O)N2CCCCC2CCN2CCOCC2)cc1 (configuration not stated) | 7.1% |
| CC1CCC(NC(=O)c2ccc(CS(=O)(=O)c3ccc(Cl)cc3)o2)CC1 (configuration not stated) | 10.2% |
| CCN(CC)S(=O)(=O)c1ccc(C(=O)NCCSc2c(-c3ccc(F)cc3)[nH]c3ccccc23)cc1 | -3.39% |
| Cc1ccc(-c2cn3cccnc3n2)cc1NC(=O)Nc1ccc(F)cc1 | -14.6% |
| O=C1CSC(c2cccc([N+](=O)[O-])c2)N1Cc1ccccc1 (configuration not stated) | active: 30.3% |
| CC(C)(C)OC(=O)N1CCC(c2c(C(=O)N3CCN(c4ccccn4)CC3)cnn2-c2ccc(F)cc2)CC1 | 12.1% |
| COc1ccc2c(c1)c(=O)c(S(=O)(=O)c1ccc(F)cc1)cn2Cc1ccccc1Cl | -4.82% |
| COc1cccc2c(C)cc3nnc(SCC(=O)Nc4ccc(C)cc4)n3c12 | 0.186% |
| COCCNC(=O)CN1C(=O)c2cccnc2Sc2ccccc21 | 19.9% |
| O=C(Cn1ncc2c1-c1ccccc1OC2)N1CCN(c2ccccc2)CC1 | -2.55% |
| O=C(c1ccc2c(c1)OCO2)c1cn(Cc2ccc(Cl)cc2)c2ccc(F)cc2c1=O | -9.38% |
| COCCNC(=O)c1sc2ncccc2c1-n1c(C)ccc1C | 20.2% |
| COc1cc(NC(=O)C2CCN(S(=O)(=O)Cc3ccccc3)CC2)c(OC)cc1Cl | 0.26% |
| CCC(C)n1c(=O)c2sccc2n2c(CCCC(=O)NCc3ccccc3Cl)nnc12 (configuration not stated) | 2.61% |
| Cc1cccc(N(C)S(=O)(=O)c2nnc(NC(=O)c3cccs3)s2)c1 | -9.63% |
| CCCCCOC(=O)NCCOC(=O)Nc1ccc(C(=O)OCC)cc1 | active: 33% |
| Cc1ccc(-c2nnc(NC(=O)Cc3ccc(F)cc3)o2)c(C)c1 | active: 66.8% |
| CCOC(=O)c1cccc(NC(=O)Cn2c(=O)c3cccn3c3ccccc32)c1 | 8.86% |

| SMILES | inhibition |
| --- | --- |
| Cc1ccc(C(=O)c2sc(Nc3ccccc3)c(S(=O)(=O)c3ccccc3)c2N)c(C)c1 | -4.96% |
| Cc1cc(C)n2nc(CNC(=O)c3c(F)cccc3F)nc2n1 | -5.74% |
| COc1ccccc1CNC(=O)c1ccc2[nH]c(C)c(C)c2c1 | 8.74% |
| COc1ccc(NC(=O)c2nnn(Cc3nc(-c4cc(OC)c(OC)c(OC)c4)oc3C)c2C)cc1Cl | -2.55% |
| COc1ccc(OC)c(NS(=O)(=O)c2ccc(-n3cccn3)cc2)c1 | 11.1% |
| CCCCNC(=O)C(CC)Sc1nc2ccccc2c(=O)n1Cc1ccco1 (configuration not stated) | 10.3% |
| COCCCNC(=O)Cn1c(=O)n(-c2ccc(C)c(C)c2)c(=O)c2c3c(sc21)CCCCC3 | -6.66% |
| COc1ccccc1NC(=O)C1=C(C)Nc2nc(SCc3ccccc3)nn2C1c1cccc(O)c1 (configuration not stated) | 21.6% |
| COc1ccc(NC(=O)c2ccc(NC(=O)N3CCSc4ncccc43)cc2)cc1 | -7.12% |
| COCCNC(=O)C1CCN(Cc2cc3ccccc3n2Cc2ccc(C)cc2)CC1 | 0.425% |
| COCCn1c(CNC(=O)c2cccc(C)c2)nc2cccnc21 | -9.19% |
| C/C(=N\Nc1ccc(Cl)c(C(=O)O)c1)c1ccc(N2CCOCC2)cc1 | active: 33.1% |
| O=C1CSC(c2ccccc2)N1CC12CC3CC(CC(O)(C3)C1)C2 (configuration not stated) | active: 37.5% |
| CCOC(=O)c1c(NC(=O)CSc2cn(CCNC(=O)c3ccc(OC)cc3)c3ccccc23)sc2c1CCCC2 | 3.5% |
| COc1ccc(C2c3c(n(C)c4ccccc34)C(=O)N2CC(=O)Nc2cccc(Cl)c2)cc1 (configuration not stated) | 6.18% |
| Cc1cccc(CCNC(=O)c2cc3c(s2)-c2c(C)cccc2OC3)c1 | -6.86% |
| COc1ccc(CNC(=O)c2ccc(-c3nc(CSc4ccc(C)cc4)c(C)o3)cc2)c(OC)c1 | 3.78% |
| Cc1ccc2c(c1)N(C(=O)Nc1cccc3c1CCCC3)CCO2 | -18.8% |
| O=C(Nc1ccc2c(c1)OCCO2)c1cc2ccccc2o1 | active: 32.6% |
| CCCN1CCN(C(=O)Cn2c(-c3cccs3)cc3cc(F)ccc32)CC1 | -0.495% |
| O=C(NCCc1ccccc1)c1ccc(Nc2nc3ccccc3n3nnnc23)cc1 | -7.23% |
| O=C(CN1C(=O)CC(c2ccccc2)=Nc2ccccc21)Nc1ccc(Br)cc1 | -3.26% |
| CNC(=O)c1ccc2c(c1)N(Cc1cc(C)ccc1C)C(=O)c1ccccc1S2 | -26.1% |
| COc1ccc(-c2noc(CSc3nnc(C)n3-c3cccc(C)c3)n2)cc1 | -6.82% |
| COc1ccc(O)c(C2=Nc3ccccc3N=C(c3ccccc3)C2)c1 | 4% |

| SMILES | inhibition |
| --- | --- |
| COc1cc(C(=O)NCCc2csc(-c3ccc(Cl)cc3)n2)cc(OC)c1OC | -15.4% |
| CCOC(=O)c1nc(Nc2ccc(C(=O)OC(C)C)cc2)c2ccccc2n1 | 2.18% |
| COc1ccccc1NC(=O)c1oc2ccccc2c1NC(=O)Cc1ccccc1 | -11.2% |
| Fc1ccc(-n2ncc3c(Nc4ccc5c(c4)OCCO5)ncnc32)cc1 | 0.0105% |
| Cc1ccc(N2CCN(C(=O)c3cc4cc5ccc(C)cc5nc4s3)CC2C)cc1 (configuration not stated) | -2.23% |
| Cc1ccc(Nc2sc(C(=O)c3ccccc3)c(N)c2S(=O)(=O)c2ccccc2)cc1Cl | 2.45% |
| CC(=O)c1ccc(OCC(O)CN2CCN(c3ccccn3)CC2)cc1 (configuration not stated) | active: 88.2% |
| CCc1ccc(CNC(=O)Cn2nc(-c3ccc(C)cc3)ccc2=O)cc1 | 15.9% |
| COc1ccccc1N1CCN(C(=O)CCS(=O)(=O)c2ccc3c(c2)oc(=O)n3C)CC1 | -1.64% |
| O=C(c1ccccc1)c1c2c(cc3sc4ccccc4[n+]13)-c1cccc3cccc-2c13 | active: 44.5% |
| CCc1ccc(NCc2cc3ccc(OC)cc3n(CC(=O)Nc3c(C)cc(C)cc3C)c2=O)cc1 | 2.04% |
| CC(C)Oc1ccc(C(=O)N(Cc2ccc(N(C)C)cc2)C2CCS(=O)(=O)C2)cc1 (configuration not stated) | -13.6% |
| Cn1nnc2c(N3CCN(c4ccc(F)cc4)CC3)ncnc21 | -8.33% |
| COc1ccc(Cl)cc1NC(=O)Cn1ccn(-c2cc(C)cc(C)c2)c(=O)c1=O | 15.4% |
| Cc1ccccc1CNC(=O)CCS(=O)(=O)c1cc2c3c(c1)CCN3C(=O)CC2 | -1.86% |
| CCOc1cccc(CNC(=O)c2ccc(N3CCCC3)c(NC(=O)NCc3ccccc3)c2)c1 | -18.1% |
| O=C(NCc1ccccc1)c1ccc2c(c1)CCN2S(=O)(=O)c1ccc(Cl)cc1 | -16.2% |
| CCn1cc(C(=O)NCCc2ccc(OC)c(OC)c2)c(=O)c2cc(S(=O)(=O)N(C)C3CCCCC3)ccc21 | 17.1% |
| COc1ccc(-c2noc(CN(C(=O)C(C)Oc3ccc(C)cc3)C(C)C)n2)cc1 (configuration not stated) | -3.07% |
| COc1ccc2cc3c(N)nn(C(=O)c4ccccc4Cl)c3nc2c1 | 20.4% |
| CCOc1ccc(NC(=O)N2CCN(c3ccc(Cl)c(Cl)c3)CC2)cc1 | -18.9% |
| CCCn1cc(S(=O)(=O)CC(=O)NC2CCCCC2)c2ccccc21 | active: 50.5% |
